In all, about 150,000 compounds went through this assay and about 540 (0.36%) showed an effect of 50% or more. This is one part of the list.
System: Plasmodium falciparum
Test: Primary screen in NF54 nanoGlo assay, in single point, at 2uM, 72h; a lower Z score goes with more inhibition
Type: functional, Erythrocyte
Conditions: timepoint 72 hour

Row | SMILES | % Inhibition | Z score
1 | CCN(C[C@H](C)C#N)C(=O)C1CCOCC1 | -13% | 1.86
2 | Cc1n[nH]nc1C(=O)N[C@@H](C)c1c(C)n[nH]c1C | 12% | -1.1
3 | CN1CCC2(CCCN(C(=O)c3n[nH]c4ccccc34)CC2)CC1 | -4% | 0.74
4 | COCCn1ccnc1CN1CCc2nc(C)[nH]c2C1 | 2% | -0.31
5 | O=C(N1CC[C@H](Oc2ccncc2Cl)C1)C1(c2ccccc2)CCOCC1 | 4% | -0.83
6 | Cn1c(Oc2ccc(Cl)c(Cl)c2)cc(=O)n(C)c1=O | -5% | 0.69
7 | O=C(CN1CCCC1=O)N1CCC(c2nnc(-c3ccc(F)cc3)o2)CC1 | -23% | 2.55
8 | CC[C@H]1OCC[C@@H]1C(=O)Nc1nc(-c2ccccc2Cl)nn1C | -7% | 1.23
9 | C[C@]1(NC(=O)c2c(O)cc(Cl)cc2Cl)CCOC1 | -7% | 0.88
10 | Cc1ccc(CN2CC[C@H](CNC(=O)C3CCC3)C2)c(C)c1F | -8% | 1.4
11 | C[C@H](NC(=O)NCC1(c2ccccc2Cl)CCC1)c1nnnn1C | -6% | 0.66
12 | O=C(CCc1ccncc1)N1CC[C@@H]2OCc3cnnn3[C@@H]2C1 | -3% | 0.49
13 | O=C(Cn1c2ccccc2c(=O)c2cc(Cl)ccc21)Nc1ccc(Oc2ccccc2)cc1 | 10% | -1.18
14 | CC(C)c1noc(NC(=O)c2cc3ccccc3o2)n1 | -10% | 1.52
15 | CC(C)(C)c1ncc(C(=O)NCc2ccncc2)c(O)n1 | -10% | 1.98
16 | CCc1csc(N2CC[C@@H](Oc3ccccc3)C2)n1 | -17% | 2.17
17 | O=C(c1cncc(Br)c1)N1Cc2cccnc2C1 | -10% | 1.12
18 | O=C(NC1CCCCC1)n1oc(=O)cc1-c1ccccc1 | -10% | 1.47
19 | O=C(Nc1ccc(-c2nnc3n2CCCC3)cc1)c1cccnc1O | 23% | -2.14
20 | COc1ccc2[nH]nc(NC(=O)CCCn3nc(C)nc3C)c2c1 | -10% | 1.89
21 | CN(CC1(O)CCCCCC1)C(=O)NCCc1cccc(C#N)c1 | 2% | -0.3
22 | O=S(=O)(CCCOc1ccc2c(c1)OCO2)N1CCCC1 | -11% | 1.23

Row | SMILES | % Inhibition | Z score
23 | Cc1csc(NC(=O)C2CCCC(C(=O)Nc3nc(C)cs3)C2)n1 (configuration not stated) | 2% | -0.25
24 | C[C@H]1CNCCN1C(=O)CCc1ccc(Cl)s1 | -10% | 0.96
25 | COc1ccc(OC)c(NC(=O)c2nnn(CC(=O)NCc3ccccc3Cl)c2C)c1 | 4% | -0.56
26 | Cc1ccnc(NC2CCCC3OCCC23)n1 (configuration not stated) | -11% | 1.1
27 | CC/C=C\CCCN1CCC[C@](C)(C(=O)NC)C1 | 5% | -0.96
28 | COc1cccc(Cn2c(C)c(C3CCN(S(=O)(=O)c4ccccc4C(F)(F)F)CC3)c3ccccc32)c1 | -10% | 1.35
29 | Cc1nn(C)c(C)c1C(=O)N[C@H](c1cccnc1)C1CCOCC1 | -9% | 1.7
30 | CCCc1nnc(NC(=O)c2ccccc2OCc2cn3cccc(C)c3n2)s1 | -4% | 0.36
31 | N#Cc1cccc(CN2CCCC[C@H]2c2nnc(C3CCC3)o2)c1F | -11% | 1.81
32 | O=C(O)Cc1ccc(NC(=O)C2CC23CCc2ccccc23)cc1F (configuration not stated) | -3% | 0.53
33 | CCN(C(=O)CS(=O)(=O)[C@H]1CCCOC1)C1CC1 | -13% | 1.33
34 | O=C(Nc1nc2ccccc2[nH]1)c1ccsc1 | -8% | 1.62
35 | COc1ccc(NC(=O)N2CCC(Oc3cccc4cccnc34)CC2)c(OC)c1 | -2% | 0.39
36 | CCCCN1C(=O)CCC(C(=O)N2CCNCC2)C1c1ccccc1OC (configuration not stated) | 10% | -1.27
37 | COc1cccc([C@H]2NCCc3[nH]cnc32)c1OCc1ccccc1F | -10% | 1.98
38 | O=C(CN1CCNC(=O)C1)NCCC1=CCCCC1 | -9% | 1.75
39 | Cc1cc(NS(=O)(=O)c2ccc(C(F)F)cc2)cnc1N1CCCCC1 | 1% | -0.11
40 | Cc1cc(C)c(C(=O)N[C@@H]2CCNC(=O)CC2)o1 | -4% | 0.62
41 | CCS(=O)(=O)NCCNC(=O)N(C)Cc1ccc(OC)c(C)c1 | 4% | -0.64
42 | CNC[C@H]1CCN(C(=O)C2(c3ccccc3C)CCCCC2)C1 | -10% | 1.76
43 | CCc1nc(CN(C)C(=O)N[C@H]2CCCN(C(=O)c3cccs3)C2)no1 | -25% | 2.21
44 | CCN1CCN(C(=O)c2ccc(C(F)(F)F)cc2)[C@H]2CS(=O)(=O)C[C@H]21 | -15% | 1.64

Row | SMILES | % Inhibition | Z score
45 | CCc1ccc(-c2cc3n(n2)C[C@@](C)(C(=O)NC2CCCCC2)N(c2cc(C)cc(C)c2)C3=O)cc1 | 71% | -11.34
46 | O=C(Cc1csc(NC(=O)c2ccsc2)n1)Nc1cccnc1 | -18% | 2.09
47 | CCc1noc(C)c1Cn1nc(CO)c(=O)cc1C | 1% | -0.2
48 | O=C(Cc1ccc(NCc2cccc(C(F)(F)F)c2)cc1)N1CCc2ccccc2C1 | 4% | -0.52
49 | O=S(=O)(C1COC1)N1CCOCC2(CC2)C1 | -2% | 0.38
50 | CN(Cc1ccccc1N1CCOCC1)c1ncnc(N)c1Cl | 9% | -0.82
51 | Cc1nc2c(c(N3CCC(NC(=O)c4c(F)cccc4F)CC3)n1)CCCC2 | -11% | 1.43
52 | CCS(=O)(=O)N1C[C@@H]2CN(C(=O)c3cc(C)nn3C)C[C@]2(c2nc(C)no2)C1 | -10% | 1.36
53 | COc1ccc(N2CCN(C(=O)Cn3nc(-c4ccccc4)ccc3=O)CC2)cc1 | -6% | 0.91
54 | CC(C)CCN(C1CCOCC1)C1CCN(C(=O)c2ccc(F)cc2)CC1 | -4% | 0.49
55 | O=c1c(NCc2ccccc2Cl)nccn1-c1ccc2c(c1)OCCO2 | -5% | 0.59
56 | CC(C)n1ncc2cc(CN[C@@H](C)c3ncon3)cnc21 | -1% | 0.11
57 | O=C(CC[C@H]1NC(=O)c2ccccc2NC1=O)NCCc1nnc2ccccn12 | -5% | 1.03
58 | CC(C)(COC(=O)c1ccccc1F)NC1=NS(=O)(=O)c2ccccc21 | -7% | 0.92
59 | Cc1cc(C)nc(NCCCOC2CCOCC2)n1 | -3% | 0.33
60 | Cc1nc(CNC(=O)Nc2cn(C)nn2)cs1 | -1% | 0.12
61 | CN(CC(=O)N1CCc2ccccc2C1)c1nc2c(Cl)cccc2s1 | 12% | -1.91
62 | CC(C(=O)O)N(CCOc1ccccc1)CC1CC2CC2C1 (configuration not stated) | 1% | -0.19
63 | Cc1ccc(NC(=O)Nc2cccc(CCc3nc4ccccc4n3C)c2)cc1C | -5% | 0.75
64 | COC1CC(NC(=O)C2CCCOC2)C12CCC2 (configuration not stated) | -9% | 0.86
65 | CC(C)c1cc(N2CCN(C(=O)c3ccc(=O)[nH]c3)CC2)nc(C(C)C)n1 | -10% | 1.47
66 | O=C(Cc1c[nH]c2ccccc12)NC1CCCCCCC1 | 4% | -0.57

Row | SMILES | % Inhibition | Z score
67 | CS(=O)(=O)NC[C@H]1CCCN(c2ncnc(N)c2Cl)C1 | 34% | -3.79
68 | CC(c1noc(C2COCCO2)n1)C1CC1 (configuration not stated) | -5% | 0.89
69 | COc1ccc([C@H]2CN(C(=O)CCc3c[nH]c4ccccc34)C[C@@H]2N)cc1 | 5% | -0.75
70 | O=C1C[C@H](NC(=O)Nc2ccccc2Cl)CN1 | 7% | -0.99
71 | CC1CCC(NC(=O)Cn2ncn3c(cc4cc(F)ccc43)c2=O)CC1 (configuration not stated) | 4% | -0.48
72 | O=C(Cn1ncc2c([nH]c3ccccc32)c1=O)N1CCN(Cc2ccc3c(c2)OCO3)CC1 | 1% | -0.17
73 | Cc1cc(=O)c(C(=O)NC2CCCCC2Oc2ccccc2)c[nH]1 (configuration not stated) | -5% | 0.72
74 | CC(C)CCN1C(=O)CC[C@@H]2CN(C(=O)N3CCN(C)CC3)CC[C@@H]21 | -18% | 2.51
75 | Cc1cc(C(F)(F)F)n(C[C@@H](C)CNc2ncnc3c2c(C)nn3C)n1 | -1% | 0.19
76 | Nc1ccnc(N2CC(c3cccnc3)C2)n1 | -12% | 1.78
77 | Cc1ccc(OCCN(C)CC2(C)COC2)c(C)c1 | -1% | 0.2
78 | CC[C@H](C)N(Cc1c(-c2ccccc2)nn(C)c1N(C)C)C(=O)c1cccc(F)c1 | 3% | -0.36
79 | CC(C)c1cc(C(=O)NC(c2ccccc2)[C@H]2C[C@@H](O)C2)on1 (some centres not stated) | 6% | -0.95
80 | COc1ccc(NC(=O)[C@@H](NC(=O)c2cccnc2)c2ccccc2)cn1 | 4% | -0.47
81 | O=C(c1ccc(O[C@H]2CCOC2)nc1)N1CCc2ccccc2C1 | -13% | 2.4
82 | CCCCC(C)C(=O)NC(C)c1nnnn1C (configuration not stated) | 7% | -1.32
83 | Cc1cnc(C2CC2)n1C[C@H]1CCCN(C(=O)c2ccnn2C)C1 | 12% | -1.51
84 | CN1CCN(C(=O)[C@@H]2CCCN2C(N)=O)[C@@H](c2ccccc2)C1 | 4% | -0.81
85 | CCOC(=O)c1ccc(NS(=O)(=O)C2CCC2)c(O)c1 | -16% | 3.21
86 | COc1cccc(CNS(=O)(=O)c2ccc3c(c2)OC[C@@H](C(=O)N2CCOCC2)O3)c1 | -14% | 1.49
